In the supplement of paper PMC12230231 one finds enrichment data, which are given here for 12 sequences.

± gives the standard deviation of the averaged measurements. Restriction of a single-cycle SIVsab GFP reporter by TRIM5α v1-loop variants in CRFK cells. Human variants: read share among cells still uninfected after two challenges over input, higher = gained restriction. Rhesus variants: share among infected cells over input, higher = lost restriction. Reporter dose not given per row. No active / inactive call per row; the paper calls a change when both replicates lie above its controls (mean + 2 SD of stop or wild-type variants, or the top frameshift score). Residues outside the varied loop are taken from Swiss-Prot. The paper reads the human single-substitution scores as noise; they and the rhesus combinations repeat poorly (rank correlation 0.3 to 0.4), indel scores repeat only for the top variants, rhesus substitutions well (0.9).

In this series the test system is SIVsab (simian immunodeficiency virus of sabaeus monkeys), single-cycle GFP reporter, in CRFK cells. Nature of the series: enrichment among uninfected cells over input (fold); higher = stronger restriction. The note with it: library: insertions and deletions. The procedure: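 Pools of CRFK cells expressing variants of the TRIM5α v1 loop were challenged with the single-cycle reporter, sorted by GFP and sequenced; mean of two replicates.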
In turn, “MASGILVNVKEEVTCPICLELLTQPLSLDCGHSFCQACLTANHKKSMLDKGESSCPVCRISYQPENIRPNRHVANIVEKLREVKLSPEGQKVDHCARHGEKLLLFCQEDGKVICWLCERSQEHRGHHTFLTEEVAREYQVKLQAALEMLRQKQQEAEELEADIREEKASWKTQIQYDKTNVLADFEQLRDILDWEESNELQNLEKEEEDILKSLTNSETEMVQQTQSLRELISDLEHRLQGSVMELLQGVDGVIKRTENVTLKKPETFPKNQRRVFRAPDLKGMLEVFRELTDVRRYWVDVTVAPNNISCAVISEDKRQVSSPKPQIIYGARGTRYQTFVNFILGSQSITSGKHYWEVDVSKKTAWILGVCAGFQPDAMCNIEKNENYQPKYGYWVIGLEEGVKCSAFQDSSFHTPSVPFIVPLSVIICPDRVGVFLDYEACTVSFFNITNHGFLIYKFSHCSFSQPVFPYLNPRKCGVPMTLCSPSS [human TRIM5α, 5-codon deletion at 343]” came in with an enrichment of 0.75 ± 0.59.
The value for “MASGILVNVKEEVTCPICLELLTQPLSLDCGHSFCQACLTANHKKSMLDKGESSCPVCRISYQPENIRPNRHVANIVEKLREVKLSPEGQKVDHCARHGEKLLLFCQEDGKVICWLCERSQEHRGHHTFLTEEVAREYQVKLQAALEMLRQKQQEAEELEADIREEKASWKTQIQYDKTNVLADFEQLRDILDWEESNELQNLEKEEEDILKSLTNSETEMVQQTQSLRELISDLEHRLQGSVMELLQGVDGVIKRTENVTLKKPETFPKNQRRVFRAPDLKGMLEVFRELTDVRRYWVDVTVAPNNISCAVISEDKRQVSSPKPQIIYGARGTRYQTFVNFLGSQSITSGKHYWEVDVSKKTAWILGVCAGFQPDAMCNIEKNENYQPKYGYWVIGLEEGVKCSAFQDSSFHTPSVPFIVPLSVIICPDRVGVFLDYEACTVSFFNITNHGFLIYKFSHCSFSQPVFPYLNPRKCGVPMTLCSPSS [human TRIM5α, 6-codon deletion at 343]” was 1.12 ± 0.21.
Take “MASGILVNVKEEVTCPICLELLTQPLSLDCGHSFCQACLTANHKKSMLDKGESSCPVCRISYQPENIRPNRHVANIVEKLREVKLSPEGQKVDHCARHGEKLLLFCQEDGKVICWLCERSQEHRGHHTFLTEEVAREYQVKLQAALEMLRQKQQEAEELEADIREEKASWKTQIQYDKTNVLADFEQLRDILDWEESNELQNLEKEEEDILKSLTNSETEMVQQTQSLRELISDLEHRLQGSVMELLQGVDGVIKRTENVTLKKPETFPKNQRRVFRAPDLKGMLEVFRELTDVRRYWVDVTVAPNNISCAVISEDKRQVSSPKPQIIYGARGTRYQTFVNFNCTGILGSQSITSGKHYWEVDVSKKTAWILGVCAGFQPDAMCNIEKNENYQPKYGYWVIGLEEGVKCSAFQDSSFHTPSVPFIVPLSVIICPDRVGVFLDYEACTVSFFNITNHGFLIYKFSHCSFSQPVFPYLNPRKCGVPMTLCSPSS [human TRIM5α, 1-codon deletion at 344]”: the enrichment was 0.613 ± 0.036.
The same measure for “MASGILVNVKEEVTCPICLELLTQPLSLDCGHSFCQACLTANHKKSMLDKGESSCPVCRISYQPENIRPNRHVANIVEKLREVKLSPEGQKVDHCARHGEKLLLFCQEDGKVICWLCERSQEHRGHHTFLTEEVAREYQVKLQAALEMLRQKQQEAEELEADIREEKASWKTQIQYDKTNVLADFEQLRDILDWEESNELQNLEKEEEDILKSLTNSETEMVQQTQSLRELISDLEHRLQGSVMELLQGVDGVIKRTENVTLKKPETFPKNQRRVFRAPDLKGMLEVFRELTDVRRYWVDVTVAPNNISCAVISEDKRQVSSPKPQIIYGARGTRYQTFVNFNFNYCTGILGSQSITSGKHYWEVDVSKKTAWILGVCAGFQPDAMCNIEKNENYQPKYGYWVIGLEEGVKCSAFQDSSFHTPSVPFIVPLSVIICPDRVGVFLDYEACTVSFFNITNHGFLIYKFSHCSFSQPVFPYLNPRKCGVPMTLCSPSS [human TRIM5α, 2-codon duplication at 341]”: 0.502 ± 0.45; for “MASGILVNVKEEVTCPICLELLTQPLSLDCGHSFCQACLTANHKKSMLDKGESSCPVCRISYQPENIRPNRHVANIVEKLREVKLSPEGQKVDHCARHGEKLLLFCQEDGKVICWLCERSQEHRGHHTFLTEEVAREYQVKLQAALEMLRQKQQEAEELEADIREEKASWKTQIQYDKTNVLADFEQLRDILDWEESNELQNLEKEEEDILKSLTNSETEMVQQTQSLRELISDLEHRLQGSVMELLQGVDGVIKRTENVTLKKPETFPKNQRRVFRAPDLKGMLEVFRELTDVRRYWVDVTVAPNNISCAVISEDKRQVSSPKPQIIYGARGTRYQTFVNFNFNYCTGILGSQSITSGKHYWEVDVSKKTAWILGVCAGFQPDAMCNIEKNENYQPKYGYWVIGLEEGVKCSAFQDSSFHTPSVPFIVPLSVIICPDRVGVFLDYEACTVSFFNITNHGFLIYKFSHCSFSQPVFPYLNPRKCGVPMTLCSPSS [human TRIM5α, 2-codon duplication at 342]”: 0.163 ± 0.16.
The same measure for “MASGILVNVKEEVTCPICLELLTQPLSLDCGHSFCQACLTANHKKSMLDKGESSCPVCRISYQPENIRPNRHVANIVEKLREVKLSPEGQKVDHCARHGEKLLLFCQEDGKVICWLCERSQEHRGHHTFLTEEVAREYQVKLQAALEMLRQKQQEAEELEADIREEKASWKTQIQYDKTNVLADFEQLRDILDWEESNELQNLEKEEEDILKSLTNSETEMVQQTQSLRELISDLEHRLQGSVMELLQGVDGVIKRTENVTLKKPETFPKNQRRVFRAPDLKGMLEVFRELTDVRRYWVDVTVAPNNISCAVISEDKRQVSSPKPQIIYGARGTRYQTFVNFNFVNFNYCTGILGSQSITSGKHYWEVDVSKKTAWILGVCAGFQPDAMCNIEKNENYQPKYGYWVIGLEEGVKCSAFQDSSFHTPSVPFIVPLSVIICPDRVGVFLDYEACTVSFFNITNHGFLIYKFSHCSFSQPVFPYLNPRKCGVPMTLCSPSS [human TRIM5α, 5-codon duplication at 339]”: 0.654 ± 0.66; for “MASGILVNVKEEVTCPICLELLTQPLSLDCGHSFCQACLTANHKKSMLDKGESSCPVCRISYQPENIRPNRHVANIVEKLREVKLSPEGQKVDHCARHGEKLLLFCQEDGKVICWLCERSQEHRGHHTFLTEEVAREYQVKLQAALEMLRQKQQEAEELEADIREEKASWKTQIQYDKTNVLADFEQLRDILDWEESNELQNLEKEEEDILKSLTNSETEMVQQTQSLRELISDLEHRLQGSVMELLQGVDGVIKRTENVTLKKPETFPKNQRRVFRAPDLKGMLEVFRELTDVRRYWVDVTVAPNNISCAVISEDKRQVSSPKPQIIYGARGTRYQTFVNFNGILGSQSITSGKHYWEVDVSKKTAWILGVCAGFQPDAMCNIEKNENYQPKYGYWVIGLEEGVKCSAFQDSSFHTPSVPFIVPLSVIICPDRVGVFLDYEACTVSFFNITNHGFLIYKFSHCSFSQPVFPYLNPRKCGVPMTLCSPSS [human TRIM5α, 3-codon deletion at 344]”: 0.394 ± 0.018.
The same measure for “MASGILVNVKEEVTCPICLELLTQPLSLDCGHSFCQACLTANHKKSMLDKGESSCPVCRISYQPENIRPNRHVANIVEKLREVKLSPEGQKVDHCARHGEKLLLFCQEDGKVICWLCERSQEHRGHHTFLTEEVAREYQVKLQAALEMLRQKQQEAEELEADIREEKASWKTQIQYDKTNVLADFEQLRDILDWEESNELQNLEKEEEDILKSLTNSETEMVQQTQSLRELISDLEHRLQGSVMELLQGVDGVIKRTENVTLKKPETFPKNQRRVFRAPDLKGMLEVFRELTDVRRYWVDVTVAPNNISCAVISEDKRQVSSPKPQIIYGARGTRYQTFVNFNGSQSITSGKHYWEVDVSKKTAWILGVCAGFQPDAMCNIEKNENYQPKYGYWVIGLEEGVKCSAFQDSSFHTPSVPFIVPLSVIICPDRVGVFLDYEACTVSFFNITNHGFLIYKFSHCSFSQPVFPYLNPRKCGVPMTLCSPSS [human TRIM5α, 6-codon deletion at 344]”: 1.35 ± 1.2.
“MASGILVNVKEEVTCPICLELLTQPLSLDCGHSFCQACLTANHKKSMLDKGESSCPVCRISYQPENIRPNRHVANIVEKLREVKLSPEGQKVDHCARHGEKLLLFCQEDGKVICWLCERSQEHRGHHTFLTEEVAREYQVKLQAALEMLRQKQQEAEELEADIREEKASWKTQIQYDKTNVLADFEQLRDILDWEESNELQNLEKEEEDILKSLTNSETEMVQQTQSLRELISDLEHRLQGSVMELLQGVDGVIKRTENVTLKKPETFPKNQRRVFRAPDLKGMLEVFRELTDVRRYWVDVTVAPNNISCAVISEDKRQVSSPKPQIIYGARGTRYQTFVNFNILGSQSITSGKHYWEVDVSKKTAWILGVCAGFQPDAMCNIEKNENYQPKYGYWVIGLEEGVKCSAFQDSSFHTPSVPFIVPLSVIICPDRVGVFLDYEACTVSFFNITNHGFLIYKFSHCSFSQPVFPYLNPRKCGVPMTLCSPSS [human TRIM5α, 4-codon deletion at 344]”: the enrichment was 1.06 ± 0.67.
For the sequence “MASGILVNVKEEVTCPICLELLTQPLSLDCGHSFCQACLTANHKKSMLDKGESSCPVCRISYQPENIRPNRHVANIVEKLREVKLSPEGQKVDHCARHGEKLLLFCQEDGKVICWLCERSQEHRGHHTFLTEEVAREYQVKLQAALEMLRQKQQEAEELEADIREEKASWKTQIQYDKTNVLADFEQLRDILDWEESNELQNLEKEEEDILKSLTNSETEMVQQTQSLRELISDLEHRLQGSVMELLQGVDGVIKRTENVTLKKPETFPKNQRRVFRAPDLKGMLEVFRELTDVRRYWVDVTVAPNNISCAVISEDKRQVSSPKPQIIYGARGTRYQTFVNFNLGSQSITSGKHYWEVDVSKKTAWILGVCAGFQPDAMCNIEKNENYQPKYGYWVIGLEEGVKCSAFQDSSFHTPSVPFIVPLSVIICPDRVGVFLDYEACTVSFFNITNHGFLIYKFSHCSFSQPVFPYLNPRKCGVPMTLCSPSS [human TRIM5α, 5-codon deletion at 344]”, the enrichment is 1.64 ± 0.7.
As for “MASGILVNVKEEVTCPICLELLTQPLSLDCGHSFCQACLTANHKKSMLDKGESSCPVCRISYQPENIRPNRHVANIVEKLREVKLSPEGQKVDHCARHGEKLLLFCQEDGKVICWLCERSQEHRGHHTFLTEEVAREYQVKLQAALEMLRQKQQEAEELEADIREEKASWKTQIQYDKTNVLADFEQLRDILDWEESNELQNLEKEEEDILKSLTNSETEMVQQTQSLRELISDLEHRLQGSVMELLQGVDGVIKRTENVTLKKPETFPKNQRRVFRAPDLKGMLEVFRELTDVRRYWVDVTVAPNNISCAVISEDKRQVSSPKPQIIYGARGTRYQTFVNFNNFNYCTGILGSQSITSGKHYWEVDVSKKTAWILGVCAGFQPDAMCNIEKNENYQPKYGYWVIGLEEGVKCSAFQDSSFHTPSVPFIVPLSVIICPDRVGVFLDYEACTVSFFNITNHGFLIYKFSHCSFSQPVFPYLNPRKCGVPMTLCSPSS [human TRIM5α, 3-codon duplication at 341]”, the enrichment stood at 0.362 ± 0.14.
As for “MASGILVNVKEEVTCPICLELLTQPLSLDCGHSFCQACLTANHKKSMLDKGESSCPVCRISYQPENIRPNRHVANIVEKLREVKLSPEGQKVDHCARHGEKLLLFCQEDGKVICWLCERSQEHRGHHTFLTEEVAREYQVKLQAALEMLRQKQQEAEELEADIREEKASWKTQIQYDKTNVLADFEQLRDILDWEESNELQNLEKEEEDILKSLTNSETEMVQQTQSLRELISDLEHRLQGSVMELLQGVDGVIKRTENVTLKKPETFPKNQRRVFRAPDLKGMLEVFRELTDVRRYWVDVTVAPNNISCAVISEDKRQVSSPKPQIIYGARGTRYQTFVNFNNYCTGILGSQSITSGKHYWEVDVSKKTAWILGVCAGFQPDAMCNIEKNENYQPKYGYWVIGLEEGVKCSAFQDSSFHTPSVPFIVPLSVIICPDRVGVFLDYEACTVSFFNITNHGFLIYKFSHCSFSQPVFPYLNPRKCGVPMTLCSPSS [human TRIM5α, 1-codon duplication at 343]”, the enrichment stood at 0.55 ± 0.083.
